# Measured values as given in PubChem BioAssay AID1458 (National Center for Advancing Translational Sciences (NCATS), 2008).
# Hit rate of the full screen: of about 210,000 compounds, about 5,900 (2.8%) were called active. Inconclusive means that the source gave no clear call. Such entries were picked first, then a sample of the others. Calls come from the whole dose curve; as a rule, active = well fitted activation curve with a large enough effect; inconclusive = small, poorly fitted or top-dose-only effect; inactive = no such curve, though single readings can be large or run the other way. Potencies beside an inconclusive call are fits to weak or partial responses and may not hold up.
# Assay: qHTS Assay for Enhancers of SMN2 Splice Variant Expression; note: nearly all actives have a fitted effect of over 55% in size; for activity change, positive = activation: % of control where 0% means no effect
# Conditions: HEK293 SMN2-luciferase splicing reporter, luminescence, 30-36 h; activity change, positive = activation: at 46.1 µM (top of the series)
# Method in brief: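 HEK293 cells carry an SMN2 […]–luciferase reporter in which exon 7 inclusion puts luciferase in frame. Cells were plated 10-12 h before compound addition, then incubated 30-36 h at 37C. ONE-Glo luminescence was read; sodium butyrate at 4.5 mM final served as control.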
# Potency is the fitted concentration of half-maximal effect; tags give direction and shape of the fitted curve.
Compound,"activity change, positive = activation",Potency
Cc1ccc2cc(C(c3nnnn3C3CCCC3)N3CCOCC3)c(=O)[nH]c2c1C (centres undefined),inactive: -16.6%,–
Cc1ccc(S(=O)(=O)N(C)CCCC(=O)n2nc(C)cc2C)cc1,–,"inconclusive: 0.282 µM [activator, full curve, poor fit]"
Cc1ccc(C(=O)Nc2nncs2)cc1S(=O)(=O)N1CCOCC1,–,"inconclusive: 1.41 µM [activator, full curve, poor fit]"
COc1ccc(C(=O)Nn2c(C)ccc2C)cc1OC,–,"inconclusive: 28.2 µM [activator, partial curve, poor fit]"
Cc1ccc(NC(=O)/C=C/c2ccccc2Cl)cc1Cl,–,"inconclusive: 10 µM [activator, partial curve]"
CNC(=O)C1CCC(=O)N1Cc1ccccc1Cl (centres undefined),–,"inconclusive: 0.0708 µM [activator, full curve, poor fit]"
Cn1c(SCc2ccccc2Cl)nnc1-c1cnccn1,–,"inconclusive: 28.2 µM [activator, single point]"
[O-]/[N+](=C/c1ccc(F)cc1)c1ccccc1,inactive: -8.75%,–
COc1ccc(NC(=O)/C=C/c2ccc(F)cc2)cn1,–,"inconclusive: 15.8 µM [activator, single point]"
Cc1ccc(/C=C/c2nnc(-c3ccccc3)o2)cc1,–,"inconclusive: 31.6 µM [activator, single point]"
COc1ccc(C(C[N+](=O)[O-])c2c(-c3ccccc3)cc3ccccn23)cc1 (centres undefined),–,"inconclusive: 12.6 µM [activator, single point]"
Cc1ccc(/C=N/NC(=S)N2CCOCC2)cc1,inactive: 33.5%,–
Cc1cc(N)c(-n2cc3c(=O)n(C)c(=O)n(C)c3c2)cc1C,–,"inconclusive: 25.1 µM [activator, partial curve, poor fit]"
Clc1ccc(OCc2nc(-c3ccncc3)no2)c(Br)c1,–,active: 3.16 µM
CC(C)CNC(=O)/C=C/c1cccs1,–,"inconclusive: 22.4 µM [activator, single point]"
COc1cc(NS(=O)(=O)c2ccc(Br)s2)cc(OC)c1,–,"inconclusive: 0.316 µM [activator, full curve]"
CS(=O)(=O)N1CCC[C@@]2(CCN(Cc3nccs3)C2)C1,inactive: -19.1%,–
C=CCn1cnc2c(nnn2-c2ccc(C)c(C)c2)c1=O,–,"inconclusive: 35.5 µM [activator, single point]"
Cc1ccccc1OCC(=O)Nc1ccccc1-c1ccccc1,–,"inconclusive: 22.4 µM [activator, single point]"
Cc1ccc2c(CC(=O)OCC(=O)Nc3ccc(Cl)cn3)coc2c1,–,"inconclusive: 3.55 µM [activator, single point]"
c1ccc(-c2cc3n(c2)CCc2ccccc2-3)cc1,–,active: 11.2 µM
Cc1ccc(NC(=O)c2oc3ccccc3c2C)c([N+](=O)[O-])c1,–,"inconclusive: 10 µM [activator, partial curve]"
Clc1ccc(OCc2nnc(-c3ccccc3Br)o2)c(Cl)c1,–,"inconclusive: 14.1 µM [activator, single point]"
O=C(NCC(=O)N1CCCC1)c1cccs1,–,"inconclusive: 35.5 µM [activator, single point]"
CCOC(=O)c1sc(=NC(=O)CCSc2ccccc2)n(C)c1C,–,"inconclusive: 15.8 µM [activator, single point]"

Compound,"activity change, positive = activation",Potency
Cc1ccc2c(c1)c1cccc3c1n2CCN3CCC(N)=O,–,active: 20 µM
COc1ccc(C(=O)Cn2nnc(-c3ccccc3NC(=O)C(F)(F)F)n2)cc1,–,"inconclusive: 0.0316 µM [activator, full curve, poor fit]"
CCCc1n[nH]c2c1C(=O)C(C(=O)OC)C(C)(C)C2 (centres undefined),–,"inconclusive: 20 µM [activator, partial curve, poor fit]"
Cc1ccc(-c2cc(C(=O)N/N=C/c3c(C)nn(C)c3C)c3ccccc3n2)cc1C,–,"inconclusive: 12.6 µM [activator, single point]"
COC(=O)C(CCSC)Nc1ncnc2onc(-c3ccc(F)cc3)c12 (centres undefined),inactive: -9.02%,–
Cc1n[nH]c(C)c1S(=O)(=O)N1CCC(C(=O)N2CCn3c2nc2ccccc23)CC1,–,"inconclusive: 11.2 µM [activator, partial curve, poor fit]"
CCOc1ccc(-c2nc(CSc3nnc(C)s3)cs2)cc1OC,–,"inconclusive: 0.0282 µM [activator, full curve, poor fit]"
C/C(=N\Nc1c([N+](=O)[O-])c(C)nn1C)c1ccc(F)cc1F,inactive: -10.5%,–
CC(C)(C)c1ccc(CNc2ccc([N+](=O)[O-])cn2)cc1,–,"inconclusive: 7.94 µM [activator, partial curve, poor fit]"
Cc1cc(C)c2c(N)c(C(=O)NCc3ccco3)sc2n1,–,"inconclusive: 12.6 µM [activator, partial curve]"
CCCCC(=O)Nc1nc2ccc(C(=O)OC)cc2s1,–,"inconclusive: 17.8 µM [activator, single point]"
CN1/C(=C\C(=O)c2cncc(Br)c2)C(C)(C)c2ccccc21,inactive: -50.8%,–
O=C(Nc1cccc(-c2nnc(-c3ccco3)o2)c1)c1ccccc1,inactive: -5.29%,–
NC(=O)C1CCN(CC(=O)c2c[nH]c3ccc(F)cc23)CC1,–,"inconclusive: 17.8 µM [activator, single point]"
COc1cc(NC(=O)COC(=O)c2n[nH]c3ccccc23)c(C)cc1[N+](=O)[O-],inactive: -13.4%,–
CCOc1ccc(C(=O)NCCSc2c(C)[nH]c3ccccc23)cc1OCC,inactive: -3.5%,–
CCCN1C(=O)/C(=C/c2ccc(C)o2)SC1=Nc1ccc(OC)cc1,–,"inconclusive: 0.0282 µM [activator, full curve, poor fit]"
O=C(NCCN1CCOCC1)NC1(C(F)(F)F)Oc2ccc(Cl)cc2O1 (centres undefined),–,"inconclusive: 2.82 µM [activator, partial curve, poor fit]"
CCOc1ccc(C(=O)N/N=C/c2ccc(SC)cc2)cc1,–,"inconclusive: 1 µM [activator, partial curve, poor fit]"
O=C(Nc1cccc2ccccc12)c1cnccn1,–,"inconclusive: 4.47 µM [activator, full curve]"
COc1ccccc1-n1nc(C(=O)O)c2ccccc2c1=O,inactive: -7.84%,–
Cc1ccc(OCC(=O)Nc2cccc3nsnc23)c(C)c1,–,"inconclusive: 4.47 µM [activator, full curve]"
CCN1CCN(Cc2ccccc2NC(=O)Nc2ccc(C)cc2)CC1,–,"inconclusive: 11.2 µM [activator, partial curve]"
COC(=O)c1ccncc1N,inactive: 5.35%,–
Cc1cccc(NC(=O)Nc2nnc(-c3ccccc3)o2)c1,inactive: -14%,–

Compound,"activity change, positive = activation",Potency
CC(C)C(=O)Nc1ncc(C(F)(F)F)cc1Cl,–,"inconclusive: 14.1 µM [activator, single point]"
O=C(Nc1nccc(-c2cccs2)n1)c1cccs1,–,"inconclusive: 14.1 µM [activator, single point]"
COc1ccccc1-c1nnc(NC(=O)CSc2nncn2C)s1,–,active: 11.2 µM
COc1cc2c(cc1OC)[C@@H]1CC(=O)[C@@H](CC(C)C)CN1CC2,inactive: -12.5%,–
CCSC1=N/C(=C\c2cccnc2)C(=O)N1c1ccccc1,–,"inconclusive: 31.6 µM [activator, single point]"
CSc1ccccc1C(=O)NCCOc1ccccc1C,inactive: -9.5%,–
O=C1C/C(=C/NCc2ccccc2)C(=O)N1,–,"inconclusive: 5.62 µM [activator, partial curve, poor fit]"
COc1ccccc1CNC(=O)c1c(N)n(CCCN2CCOCC2)c2nc3ccccc3nc12,–,"inconclusive: 0.02 µM [activator, full curve, poor fit]"
CCOc1cccc(CC(=O)N2CCc3c([nH]c4ccc(OC)cc34)C2c2ccc(F)cc2)c1OCC (centres undefined),inactive: -0.443%,–
COc1cc(C2C(C#N)=C(N)Oc3c2ccc2ccccc32)ccc1OCC(=O)Nc1cccc(C)c1 (centres undefined),inactive: -29.4%,–
Cc1ccc2c(Cl)c(C(=O)NCC3CCCO3)sc2c1 (centres undefined),–,active: 11.2 µM
CCc1nnc(NC(=O)C=C(C)C)s1,–,active: 10 µM
CCN1CCN(c2nc3c(c(=O)n(C)c(=O)n3C)n2CCSc2ncccn2)CC1,–,"inconclusive: 35.5 µM [activator, partial curve, poor fit]"
CCOC(=O)CSC1=NC(=O)CS1,–,"inconclusive: 0.562 µM [activator, full curve, poor fit]"
COc1cc(OC)cc(C2C(C#N)=C(N)Oc3n[nH]c(-c4cccnc4)c32)c1 (centres undefined),–,"inconclusive: 10 µM [activator, partial curve, poor fit]"
O=C(NCCc1c[nH]c2ccccc12)c1cnc2n(c1=O)CCS2,–,"inconclusive: 20 µM [activator, single point]"
O=C(CCCN1C(=O)/C(=C/c2ccccc2)SC1=S)Nc1ccccc1O,inactive: -71.4%,–
Cc1ccc(NC(=O)c2ccn(C)n2)c(Br)c1,–,active: 2 µM
Cc1cc(C)c2nc(N3CCCC(C(=O)NCc4ccccc4F)C3)sc2c1 (centres undefined),inactive: 15.2%,–
Cc1ccc2cccc(NC(=O)c3cccc4c(Br)cccc34)c2n1,inactive: 14.9%,–
O=C(CN1CCN(c2ccccc2F)CC1)c1ccc2cc[nH]c2c1,–,"inconclusive: 3.55 µM [activator, single point]"
CC1N=C2c3ccccc3N=C(SCc3cc(=O)n4cc(Cl)ccc4n3)N2C1=O (centres undefined),–,"inconclusive: 4.47 µM [activator, partial curve, poor fit]"
CCn1c(CSc2nc3ccccc3s2)nnc1SCC(=O)NCC(=O)OC,inactive: -5.89%,–
O=C(NCCC1=CCCCC1)c1ccc(CN2CCOCC2)cc1,–,active: 12.6 µM
